# Results reported in the supplement of paper PMC5499739.
# The full ranking holds about 16,000 sequences; the median of “Z-score” is about -0.37, and the highest 2% start at about 3.1. This is one part of the list.
# Test system: RBM10 RRM1-ZnF-RRM2 (GST-tagged construct)
# Assay: RNAcompete 7-mer binding Z-score; higher = stronger binding preference
# Summary of the method: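 GST-tagged RBM10 constructs (20 pmol) were mixed with a designed pool of 241 399 RNAs up to 41 nt (1.5 nmol), transcribed from microarray-derived DNA templates. Mixing was in 1 ml Hepes pH 7.8 buffer with KCl, NaCl, glycerol, DTT, BSA and glutathione Sepharose beads. Binding ran 30 min at 4°C, followed by four 2-min washes at 4°C, and bound RNA was identified by microarray hybridisation. Each heptamer motif received a one-sided Z-score for enrichment across probes containing it.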
row,Sequence,RNAcompete 7-mer binding Z-score
1,AAGUGGC,1.18
2,GUGCCCC,-0.147
3,GAACCGA,-0.0853
4,GUUUGUU,-0.0161
5,AUAGCUC,-0.533
6,CCGUAUG,-0.493
7,GUUCAAA,-0.544
8,GGGCCAU,0.512
9,UUCCAUG,-0.344
10,UACUCCC,-0.908
11,CCCCGUA,-0.661
12,CUUGUAU,-0.774
13,GAAAUUU,-0.42
14,GGGGACG,2.27
15,GACUCGA,-0.457
16,CGAGGAC,0.731
17,UGAGCAU,-0.0634
18,UAUCAAU,-0.46
19,GUAUCUG,-0.46
20,AAGUGAU,0.388
21,AUCGUAG,-0.114
22,AGGGCUC,0.00944
23,GGAUGGU,3.73

row,Sequence,RNAcompete 7-mer binding Z-score
1,AGCGACG,0.65
2,AGUACGC,-0.468
3,UGCAGUG,0.487
4,UAUUCAC,-0.774
5,CCAAGAU,-0.504
6,CUUUAGG,-0.369
7,UCUCUGU,-0.821
8,ACCGUCC,-0.897
9,AAAGGGG,4.22
10,AACUAUG,-0.322
11,CAUCUCU,-0.945
12,CAAUGGU,1.25
13,GUAUAAG,0.913
14,UCAAGGU,0.854
15,CGCGUAU,-0.366
16,GCUUGAG,-0.187
17,UUACCAG,-0.453
18,ACGUGGC,0.428
19,ACCGGCU,-0.694
20,UGAUUGU,-0.566
21,UAUUGGG,2.03
22,CCAAGCU,-0.697
23,CCGCACU,-0.897

row,Sequence,RNAcompete 7-mer binding Z-score
1,UCUGUUG,-0.846
2,GGCUGGG,1.78
3,CUUCAUA,-0.81
4,ACGUAUG,0.137
5,AAACUCC,-0.73
6,CUCUGCU,-0.967
7,CCCACAA,-0.803
8,UGACCAA,-0.00148
9,UCUACGA,-0.635
10,CGCCCCC,-0.53
11,GCACGAU,-0.0233
12,UGCAAAG,0.294
13,AUCCGGA,-0.293
14,UAAGGUG,2.07
15,UGCGAUA,0.0459
16,CGUCCUG,-0.624
17,UUGACAU,-0.504
18,GCACAGG,1.27
19,CGAUUGU,-0.643
20,AGAGCAA,0.108
21,GACCACC,-0.548
22,CACGCUG,-0.205
23,CAAUGUA,-0.0415

row,Sequence,RNAcompete 7-mer binding Z-score
1,UCCAACU,-0.843
2,CGUAUUU,-0.602
3,AGGGCUA,1.17
4,UCGUGUU,-0.468
5,CGGUGGG,3.18
6,AAGCCUA,-0.675
7,CGAGGGA,3.11
8,CUUAGCG,-0.77
9,AUACUAC,-0.621
10,CGAGUGC,-0.0816
11,AGGGUUA,3.86
12,AUUGAUU,-0.431
13,UCCUUUG,-0.821
14,CCGCGCU,-0.664
15,UCGUGUA,-0.224
16,UCCGCAC,-0.755
17,CACGCUU,-0.883
18,AUCAUGA,-0.202
19,UCACCUA,-0.828
20,UUUCCUC,-0.795
21,GGCGAAA,1.35
22,CGAUCCG,-0.628
23,UCGAACC,-0.664

row,Sequence,RNAcompete 7-mer binding Z-score
1,CGGAGUU,0.17
2,CGGUGGC,1.61
3,AAAAAUG,0.159
4,AAAAAGC,-0.118
5,UUUACAC,-0.759
6,AGGAGCC,0.239
7,CAGCCAC,-0.643
8,GAGGUUC,0.268
9,AGUAAUG,0.468
10,CAUACGU,-0.246
11,CGUUGCG,0.00216
12,ACGCAGA,0.359
13,ACACAAG,-0.264
14,CAGCACC,-0.377
15,AACAACU,-0.431
16,AAAGCCG,-0.577
17,UCCCUAG,-0.664
18,CUAGCGG,0.406
19,UCAACUU,-0.792
20,GUUAUGA,0.188
21,UUGCGAU,-0.406
22,CGGACGC,0.479
23,GCUAGAA,-0.0525

row,Sequence,RNAcompete 7-mer binding Z-score
1,UAGUCUA,-0.391
2,ACAUGCG,-0.0998
3,UUACUAA,-0.559
4,CGACCUU,-0.985
5,ACCGGAU,0.00944
6,CACCCCC,-0.592
7,UUUCUGC,-0.876
8,GCAUUGA,-0.118
9,UCGCGAA,-0.49
10,UUAACUA,-0.592
11,GCAUCUC,-0.701
12,ACUUAUC,-0.89
13,UUCCUUA,-0.763
14,CGUAUGU,-0.337
15,UCGCAAG,-0.482
16,CUAACAC,-0.664
17,ACGACAU,-0.0525
18,AGCCCAA,-0.686
19,GUCUAAG,-0.286
20,CCUUGGG,0.268
21,CUUCGGG,0.13
22,ACGUCGU,-0.242
23,UACCGCC,-0.832

row,Sequence,RNAcompete 7-mer binding Z-score
1,CCAGCUU,-0.817
2,AUAUUGU,-0.49
3,AGCAAGG,2.82
4,UCGCUUG,-0.788
5,AUCCCAA,-0.766
6,CUGACCU,-0.999
7,CAUAAGC,-0.661
8,UCAAACC,-0.719
9,CAGCUCG,-0.723
10,CUCGUGU,-0.522
11,GCAUCAA,-0.46
12,UUGUUAG,-0.398
13,GUGUUCA,-0.442
14,CCCGCGU,-0.562
15,UUAGCUC,-0.781
16,CGGCUAA,-0.198
17,CGAUCGA,-0.0816
18,UCAAAGA,-0.198
19,GCACUAA,-0.326
20,CCUACAU,-0.952
21,CACAUAU,-0.697
22,UGUCGUG,-0.0853
23,CGGUUUC,-0.227

row,Sequence,RNAcompete 7-mer binding Z-score
1,GUUAGCG,0.468
2,UAAAACC,-0.508
3,GUCGACC,-0.253
4,UCCUGCU,-0.883
5,GUACCUC,-0.464
6,CCUGGAG,0.0167
7,UGCAGCC,-0.329
8,CGUCGGG,1.14
9,UAGAGGU,1.68
10,GUCGUCG,0.206
11,GACCGGA,0.108
12,CACAAAA,-0.544
13,GCUAGGU,0.574
14,GCCGAAG,-0.0343
15,UAAAAAC,-0.497
16,AGACGUU,-0.639
17,UGACACA,-0.315
18,CUGUAGG,0.279
19,UCGUAAU,-0.471
20,AGGUGGU,2.19
21,CAUUCUC,-0.857
22,UGCAGCU,-0.391
